Consider 4 substances from article PMC11995519, “Structural insights into the human NuA4/TIP60 acetyltransferase and chromatin remodeling complex” (Science (New York, N.Y.), 2024).

Chains of the proteins cited; added tags and fusions are not shown. Lines headed by an entry give the natural chain unless they say otherwise; changes in a name come on top. A line that says so, or that is headed by a name, gives the form on record, which may keep a tag or linker.
UniProt Q96L91: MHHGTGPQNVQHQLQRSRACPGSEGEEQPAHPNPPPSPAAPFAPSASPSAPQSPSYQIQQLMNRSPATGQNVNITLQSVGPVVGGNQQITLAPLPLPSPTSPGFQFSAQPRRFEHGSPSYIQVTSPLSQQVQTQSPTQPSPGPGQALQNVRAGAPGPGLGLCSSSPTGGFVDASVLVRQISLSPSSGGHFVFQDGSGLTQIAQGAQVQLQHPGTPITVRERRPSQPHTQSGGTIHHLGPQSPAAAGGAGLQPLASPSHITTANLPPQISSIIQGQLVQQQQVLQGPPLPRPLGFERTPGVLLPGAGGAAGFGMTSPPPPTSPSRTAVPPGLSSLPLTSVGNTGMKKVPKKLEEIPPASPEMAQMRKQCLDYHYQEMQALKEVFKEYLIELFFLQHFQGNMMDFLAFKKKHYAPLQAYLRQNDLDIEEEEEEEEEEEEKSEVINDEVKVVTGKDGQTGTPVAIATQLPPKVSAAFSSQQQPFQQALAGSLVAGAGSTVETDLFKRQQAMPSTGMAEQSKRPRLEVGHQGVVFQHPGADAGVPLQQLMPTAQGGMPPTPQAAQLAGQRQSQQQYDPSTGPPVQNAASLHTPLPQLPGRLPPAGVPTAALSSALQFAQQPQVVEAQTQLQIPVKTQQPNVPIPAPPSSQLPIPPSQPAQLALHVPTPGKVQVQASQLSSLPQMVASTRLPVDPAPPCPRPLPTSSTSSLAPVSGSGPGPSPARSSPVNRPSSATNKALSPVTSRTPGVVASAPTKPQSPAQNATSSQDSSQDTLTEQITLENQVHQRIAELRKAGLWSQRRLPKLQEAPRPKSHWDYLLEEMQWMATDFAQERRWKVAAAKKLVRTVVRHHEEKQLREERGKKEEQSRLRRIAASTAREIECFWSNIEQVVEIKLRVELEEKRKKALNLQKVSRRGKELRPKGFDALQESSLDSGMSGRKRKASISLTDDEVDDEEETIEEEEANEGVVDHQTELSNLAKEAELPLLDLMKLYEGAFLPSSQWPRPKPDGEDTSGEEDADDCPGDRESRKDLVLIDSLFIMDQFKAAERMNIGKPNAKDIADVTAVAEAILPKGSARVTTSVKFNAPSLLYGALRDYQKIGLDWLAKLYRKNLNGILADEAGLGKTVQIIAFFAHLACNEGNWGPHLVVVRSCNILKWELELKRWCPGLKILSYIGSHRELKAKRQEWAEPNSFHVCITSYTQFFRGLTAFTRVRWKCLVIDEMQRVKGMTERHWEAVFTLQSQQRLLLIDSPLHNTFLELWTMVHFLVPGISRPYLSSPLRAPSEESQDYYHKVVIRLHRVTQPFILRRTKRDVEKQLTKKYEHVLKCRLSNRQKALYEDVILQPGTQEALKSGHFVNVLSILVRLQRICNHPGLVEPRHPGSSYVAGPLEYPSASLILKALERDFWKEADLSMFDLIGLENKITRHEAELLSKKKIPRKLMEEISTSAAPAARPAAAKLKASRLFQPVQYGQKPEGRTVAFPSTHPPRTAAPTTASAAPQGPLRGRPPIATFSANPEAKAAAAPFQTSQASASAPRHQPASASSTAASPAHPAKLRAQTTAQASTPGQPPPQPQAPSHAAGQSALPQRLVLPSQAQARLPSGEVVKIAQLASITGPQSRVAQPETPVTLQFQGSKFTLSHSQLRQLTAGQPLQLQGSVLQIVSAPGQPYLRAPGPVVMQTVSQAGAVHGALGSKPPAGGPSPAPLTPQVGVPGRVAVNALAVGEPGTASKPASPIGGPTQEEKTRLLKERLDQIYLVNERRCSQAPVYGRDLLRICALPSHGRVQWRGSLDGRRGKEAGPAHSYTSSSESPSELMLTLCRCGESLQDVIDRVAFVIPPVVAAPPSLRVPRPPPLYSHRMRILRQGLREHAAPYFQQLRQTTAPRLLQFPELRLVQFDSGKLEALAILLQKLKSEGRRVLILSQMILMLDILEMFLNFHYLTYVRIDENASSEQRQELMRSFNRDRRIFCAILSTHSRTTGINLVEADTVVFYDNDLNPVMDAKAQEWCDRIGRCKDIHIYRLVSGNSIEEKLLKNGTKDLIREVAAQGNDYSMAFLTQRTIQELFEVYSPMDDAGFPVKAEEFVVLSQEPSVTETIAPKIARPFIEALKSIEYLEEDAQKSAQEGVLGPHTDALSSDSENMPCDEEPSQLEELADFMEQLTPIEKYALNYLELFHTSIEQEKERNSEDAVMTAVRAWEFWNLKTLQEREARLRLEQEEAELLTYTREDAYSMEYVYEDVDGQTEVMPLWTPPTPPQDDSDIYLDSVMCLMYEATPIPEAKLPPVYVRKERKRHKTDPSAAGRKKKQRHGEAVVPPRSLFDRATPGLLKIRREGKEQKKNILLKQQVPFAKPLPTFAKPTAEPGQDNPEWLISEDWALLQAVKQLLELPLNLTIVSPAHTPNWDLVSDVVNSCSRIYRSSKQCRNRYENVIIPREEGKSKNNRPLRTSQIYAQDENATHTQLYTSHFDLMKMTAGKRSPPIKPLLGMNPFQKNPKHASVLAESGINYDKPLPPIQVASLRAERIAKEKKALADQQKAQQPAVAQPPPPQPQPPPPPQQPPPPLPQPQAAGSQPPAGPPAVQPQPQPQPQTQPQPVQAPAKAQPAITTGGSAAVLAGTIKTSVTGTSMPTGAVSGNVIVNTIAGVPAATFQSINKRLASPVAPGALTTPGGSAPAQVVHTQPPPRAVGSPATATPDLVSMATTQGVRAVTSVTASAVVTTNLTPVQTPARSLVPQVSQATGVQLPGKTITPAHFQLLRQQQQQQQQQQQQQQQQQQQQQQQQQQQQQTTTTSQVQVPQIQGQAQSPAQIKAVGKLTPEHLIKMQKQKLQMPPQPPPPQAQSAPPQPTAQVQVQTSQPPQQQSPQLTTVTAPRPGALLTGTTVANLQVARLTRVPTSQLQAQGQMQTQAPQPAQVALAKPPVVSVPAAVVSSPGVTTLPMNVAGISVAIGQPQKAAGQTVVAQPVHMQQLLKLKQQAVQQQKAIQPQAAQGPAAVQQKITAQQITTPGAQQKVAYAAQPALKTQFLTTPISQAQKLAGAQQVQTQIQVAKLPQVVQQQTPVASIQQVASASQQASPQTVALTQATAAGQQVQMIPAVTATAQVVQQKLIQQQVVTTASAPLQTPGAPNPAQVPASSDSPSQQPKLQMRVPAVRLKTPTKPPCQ
EP400–3xFlag-2xStrep lacking the SANT and HD domains (amino acids 2361 to 2530) (Q96L91, form named): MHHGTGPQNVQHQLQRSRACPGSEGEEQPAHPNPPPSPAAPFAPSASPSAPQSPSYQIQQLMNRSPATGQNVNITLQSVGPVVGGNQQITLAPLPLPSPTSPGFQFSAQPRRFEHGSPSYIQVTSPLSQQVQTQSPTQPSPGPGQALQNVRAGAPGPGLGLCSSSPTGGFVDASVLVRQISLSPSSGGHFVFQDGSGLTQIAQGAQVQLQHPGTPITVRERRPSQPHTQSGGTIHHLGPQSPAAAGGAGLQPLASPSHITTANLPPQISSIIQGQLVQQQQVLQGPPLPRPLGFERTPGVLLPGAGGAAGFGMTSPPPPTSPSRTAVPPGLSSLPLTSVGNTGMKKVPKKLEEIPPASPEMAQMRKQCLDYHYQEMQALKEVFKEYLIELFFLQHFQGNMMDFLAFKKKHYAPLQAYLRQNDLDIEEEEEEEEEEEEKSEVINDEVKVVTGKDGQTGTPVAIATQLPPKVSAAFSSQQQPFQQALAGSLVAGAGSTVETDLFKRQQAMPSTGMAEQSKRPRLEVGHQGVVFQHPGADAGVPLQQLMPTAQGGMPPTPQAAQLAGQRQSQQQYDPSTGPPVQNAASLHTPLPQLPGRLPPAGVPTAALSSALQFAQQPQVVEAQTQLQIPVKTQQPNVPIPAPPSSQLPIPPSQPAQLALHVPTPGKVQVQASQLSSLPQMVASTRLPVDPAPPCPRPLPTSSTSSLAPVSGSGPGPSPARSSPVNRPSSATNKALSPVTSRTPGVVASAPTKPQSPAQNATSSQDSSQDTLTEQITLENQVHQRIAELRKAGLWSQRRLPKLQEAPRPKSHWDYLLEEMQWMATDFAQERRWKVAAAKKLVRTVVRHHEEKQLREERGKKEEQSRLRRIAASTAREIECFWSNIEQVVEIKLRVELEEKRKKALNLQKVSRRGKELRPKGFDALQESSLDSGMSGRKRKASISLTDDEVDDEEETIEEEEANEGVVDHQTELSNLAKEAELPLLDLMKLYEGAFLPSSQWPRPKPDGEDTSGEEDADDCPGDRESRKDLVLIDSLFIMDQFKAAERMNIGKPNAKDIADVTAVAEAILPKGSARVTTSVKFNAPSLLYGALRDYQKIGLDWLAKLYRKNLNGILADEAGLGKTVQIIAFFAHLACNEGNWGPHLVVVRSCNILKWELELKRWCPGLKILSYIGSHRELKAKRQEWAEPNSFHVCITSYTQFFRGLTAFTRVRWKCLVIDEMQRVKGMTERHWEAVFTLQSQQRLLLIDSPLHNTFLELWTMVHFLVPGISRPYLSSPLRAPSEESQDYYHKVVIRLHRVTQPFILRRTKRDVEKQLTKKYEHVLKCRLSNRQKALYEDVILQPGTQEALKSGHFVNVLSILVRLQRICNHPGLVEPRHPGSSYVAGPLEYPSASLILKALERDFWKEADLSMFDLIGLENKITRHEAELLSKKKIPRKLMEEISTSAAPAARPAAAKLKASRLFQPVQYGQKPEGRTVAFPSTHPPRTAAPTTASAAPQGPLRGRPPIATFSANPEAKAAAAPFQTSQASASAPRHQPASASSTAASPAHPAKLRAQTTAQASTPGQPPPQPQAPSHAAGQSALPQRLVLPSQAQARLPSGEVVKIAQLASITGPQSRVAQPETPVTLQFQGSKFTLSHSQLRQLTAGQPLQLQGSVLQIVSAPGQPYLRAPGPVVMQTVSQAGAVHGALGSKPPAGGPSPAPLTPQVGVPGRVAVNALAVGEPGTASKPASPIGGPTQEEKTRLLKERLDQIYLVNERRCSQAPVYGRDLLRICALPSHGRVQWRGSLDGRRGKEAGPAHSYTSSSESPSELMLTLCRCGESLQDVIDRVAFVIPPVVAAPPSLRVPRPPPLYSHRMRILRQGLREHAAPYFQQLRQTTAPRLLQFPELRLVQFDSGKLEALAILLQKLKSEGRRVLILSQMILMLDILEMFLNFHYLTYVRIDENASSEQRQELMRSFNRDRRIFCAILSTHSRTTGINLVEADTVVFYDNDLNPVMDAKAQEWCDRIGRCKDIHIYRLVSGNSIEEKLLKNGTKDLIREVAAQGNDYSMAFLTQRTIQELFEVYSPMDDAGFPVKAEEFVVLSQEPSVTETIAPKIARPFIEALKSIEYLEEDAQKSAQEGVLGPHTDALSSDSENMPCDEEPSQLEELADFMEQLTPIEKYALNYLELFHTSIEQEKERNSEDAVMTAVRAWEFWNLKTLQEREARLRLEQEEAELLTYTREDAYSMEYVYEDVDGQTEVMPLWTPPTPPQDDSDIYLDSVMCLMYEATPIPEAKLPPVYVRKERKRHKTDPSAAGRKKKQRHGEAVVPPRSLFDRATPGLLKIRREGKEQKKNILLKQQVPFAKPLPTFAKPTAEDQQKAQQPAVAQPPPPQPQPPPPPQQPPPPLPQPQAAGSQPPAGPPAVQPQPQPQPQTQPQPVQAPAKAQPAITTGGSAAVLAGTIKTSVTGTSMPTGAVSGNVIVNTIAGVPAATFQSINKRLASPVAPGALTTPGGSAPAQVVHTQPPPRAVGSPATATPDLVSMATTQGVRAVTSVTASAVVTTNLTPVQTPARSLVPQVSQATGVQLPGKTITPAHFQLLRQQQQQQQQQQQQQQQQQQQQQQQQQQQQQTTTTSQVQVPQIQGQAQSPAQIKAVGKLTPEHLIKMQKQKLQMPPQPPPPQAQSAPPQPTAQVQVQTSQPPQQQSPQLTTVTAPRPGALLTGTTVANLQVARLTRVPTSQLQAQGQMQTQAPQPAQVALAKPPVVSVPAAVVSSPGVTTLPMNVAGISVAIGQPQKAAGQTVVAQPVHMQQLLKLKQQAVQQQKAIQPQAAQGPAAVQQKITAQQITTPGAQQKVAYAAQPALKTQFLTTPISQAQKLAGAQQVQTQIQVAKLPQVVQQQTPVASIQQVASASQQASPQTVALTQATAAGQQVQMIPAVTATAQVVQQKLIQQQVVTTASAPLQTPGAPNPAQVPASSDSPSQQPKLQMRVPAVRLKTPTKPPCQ
UniProt O96019: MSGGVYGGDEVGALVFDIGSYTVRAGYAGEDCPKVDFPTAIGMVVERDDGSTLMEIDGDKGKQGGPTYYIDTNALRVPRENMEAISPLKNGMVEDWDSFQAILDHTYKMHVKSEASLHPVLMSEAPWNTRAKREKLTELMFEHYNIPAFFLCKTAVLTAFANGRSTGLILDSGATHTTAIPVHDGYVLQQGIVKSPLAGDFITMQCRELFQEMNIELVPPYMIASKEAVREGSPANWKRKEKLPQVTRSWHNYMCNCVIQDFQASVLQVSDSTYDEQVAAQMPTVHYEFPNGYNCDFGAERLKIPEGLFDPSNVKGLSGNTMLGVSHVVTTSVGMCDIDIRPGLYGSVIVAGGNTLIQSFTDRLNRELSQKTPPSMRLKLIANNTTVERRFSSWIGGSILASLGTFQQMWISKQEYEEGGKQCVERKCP

No constants are given. Whether binding was seen depends on the method and setting. For part of these data: In cells and extracts the contact can be indirect. Some binding calls cover weakened binding; strength is not graded here.

Assay [1] has as its target EP400 of the reconstituted P400 subcomplex (human) (UniProt Q96L91). Briefly: cryo-EM structure; reconstituted P400 subcomplex co-expressed in Expi293 and purified, glutaraldehyde cross-linked 1 min; 2.6 Å; both purified.
The target of assay [2] is DMAP1 with alanine substitutions at L160, F161 and D162 (human) (UniProt Q9NPF5). Briefly: co-IP; tandem affinity purification of DMAP1–3xFlag-2xStrep (WT and mutants), immunoblotting, compared with a mock cell line. (Immunoblotting shows a protein as a band on a membrane.)
Assay [3] has as its target DMAP1 with alanine substitutions at L169, R170 and F171 (human) (UniProt Q9NPF5). The description is as above.
Assay [4] deals with DMAP1–3xFlag-2xStrep lacking the SANT domain (amino acids 149 to 199; ΔSANT) (human) (UniProt Q9NPF5). The assay is described as above.
For assay [5], the target named is DMAP1–3xFlag-2xStrep mutant of amino acid 190 (D190A/L191A/K192A) (human) (UniProt Q9NPF5). The assay is described as above.
For assay [6], the target named is WT DMAP1–3xFlag-2xStrep (human) (UniProt Q9NPF5). The assay is described as above.
Assay [7] has as its target EP400–3xFlag-2xStrep lacking the SANT and HD domains (amino acids 2361 to 2530) (human) (UniProt Q96L91). The assay is described as follows: co-IP; extracts of cells expressing EP400–3xFlag-2xStrep (WT or Δ2361-2530), anti-Flag immunoprecipitation, Flag peptide elution, immunoblotting.
Assay [8] addresses WT EP400–3xFlag-2xStrep (human) (UniProt Q96L91). The description is as above.

As to “BAF53a of the reconstituted P400 subcomplex (from UniProt O96019 1-429)”, the binding entry in assay [1] is listed as “binds”.

For “DMAP1 of the reconstituted P400 subcomplex (from UniProt Q9NPF5 1-467)”, in assay [1], the binding result was “binds”.

For “E1A binding protein P400 (EP400) (from UniProt Q96L91 1-3159)”, the binding result is given as “binds” in assay [2]; “no binding” in assay [3]; “no binding” in assay [4]; “binds” in assay [5]; “binds” in assay [6].

Turning to “transformation/transcription domain-associated protein (TRRAP) (from UniProt Q9Y4A5 1-3859)”, the binding entry in assay [7] is listed as “no binding”; in assay [8] it was “binds”.
